The results in this text go back to the RNAGym collection of RNA variant scans (doi:10.7554/elife.90254).

B1: OR4K15 (parent)
chain: GUUAACGGUCAUAGGCCAUGGAAACUAGGAGCACCAUUUCGCUGCCAGUGAAGAAAUGAACAAAGAAAAUCUGGGCCAGGCAGGCAUCAAAAGAAAUAGUCUUGCGCUCAACCAGAAAGUCUGUAAUCAUUUUAAGGGUA

Read counts are not given, so values of variants with three or more changes are uncertain.

Variants of B1 are the subject of the data set. Description: self-cleavage, relative activity (ratio to wild type); higher = more cleavage; in vitro, sequencing; the parent is a self-cleaving ribozyme.
On to U26C A56G A90G, for which the self-cleavage was 1.49.

For the variant A24G U100C U139C, the self-cleavage is 1.41.

With A27G C85G A89G U108C, the self-cleavage stood at 0.05.

Take A27G A63G A86G: the self-cleavage came out at 1.43.

As to A24U A30G A62G A94G U124C, the self-cleavage was 0.77.

For the variant C25U A64G A110G A111G A135U, the self-cleavage is 0.

As to A24G U39C A54G, the self-cleavage turned out to be 0.64.

For the variant A24U A94G A114U U131C, the self-cleavage was 0.04.

As to A24U A67G G104A U130G, the self-cleavage is 0.02.

Regarding A27U A59U A91G A125G, the self-cleavage came out at 0.47.

On to A24U A60G A94G, for which the self-cleavage is 1.59.

For the variant U26C G50U A60G, the self-cleavage was 1.07.

For the variant A24G U39C A90G U100C A114G U131C, the self-cleavage is 0.74.

For the variant A24G U72A A78G C113U, the self-cleavage was found to be 0.03.

Take A27G A62U U132C: the self-cleavage turned out to be 1.27.

As to C25U A114G U132C, the self-cleavage was 0.38.

As to G28A U37C G58U, the self-cleavage was 1.28.

For U26C G75C U130C, the self-cleavage was 0.08.

For the variant U26A A54G U87A A117G, the self-cleavage stood at 1.55.

In the case of A24G U39A U72C, the self-cleavage came out at 0.13.

Turning to U26A U43C A56G A82U A117G A135G, the self-cleavage was 0.2.

U26C U43A A56G U108C: the self-cleavage was 0.02.

On to A27G U43C A47G U70C, for which the self-cleavage was 0.14.

Regarding A27G A118G G119U, the self-cleavage came to 1.12.

As for A24G U37C U122C A140G, the self-cleavage was found to be 0.67.

Take A27G A30G A90G A118U: the self-cleavage is 0.7.

Regarding U26C A47G U139C, the self-cleavage turned out to be 0.2.

Take A24G A126G A134G: the self-cleavage amounted to 1.5.

Consider U26G A27G A64U U72A, for which the self-cleavage stood at 0.27.

Regarding A24U U43A A59G U133C, the self-cleavage turned out to be 0.6.

With A27G C77U A95G, the self-cleavage came out at 1.48.

A27G A54G A78C: the self-cleavage is 0.28.

As to U26C U43A U57C A67G A111G, the self-cleavage was 0.04.

For U26C C40A A55G A63G A82U A98U U100C A126G, the self-cleavage is 0.52.

Turning to A24G U39C U100C, the self-cleavage came to 1.22.

A27G U70A A95G: the self-cleavage is 1.39.

In the case of C25U U57C A67G U72G A98U, the self-cleavage came out at 0.34.

On to G29A A54G A117G, for which the self-cleavage is 1.76.

Regarding A27G U37C A63G A126G, the self-cleavage worked out at 1.07.

Regarding U26C A59G A117U, the self-cleavage came out at 1.64.

In the case of A24G C46U A63G A69G U70C A125G, the self-cleavage is 0.05.

U26A A27G U120A U131C G137A: the self-cleavage is 1.41.

For A24U A36G A54G A60G A89G, the self-cleavage is 1.32.

On to G28U U39G C113U, for which the self-cleavage is 0.03.

As to G28A U43C U70C U100C, the self-cleavage was 1.2.

For A24G U70G U103C, the self-cleavage came out at 1.07.

As to U26C A30G A114G, the self-cleavage was found to be 0.8.

On to U26C A89U A116U, for which the self-cleavage stood at 0.25.

A24G U37C G137U: the self-cleavage amounted to 1.58.

For the variant A27G A56G A86U A89G A126G, the self-cleavage stood at 1.35.

Regarding A24U A47G A89G A91G A117G U132C, the self-cleavage is 0.

As for A27G A33G A55C A69C, the self-cleavage came to 0.63.

Regarding U26C A51G A78U, the self-cleavage was found to be 0.3.

Regarding G28A A60G A64U A116G, the self-cleavage was 0.14.

A24G U39A A52G A117G: the self-cleavage turned out to be 1.24.

A24G U57C A92G: the self-cleavage came out at 0.56.

U26C G48A U49A: the self-cleavage was found to be 1.53.

Regarding A24G A111U A125U, the self-cleavage was found to be 0.18.

For A24G U26C U57A A63G, the self-cleavage came to 1.48.

Consider A24G U38A A64G A90G U108C A111C U127A, for which the self-cleavage is 0.

A24G A94G U130C: the self-cleavage turned out to be 1.46.

Take A24G C32U A66G A82U U100C A111U A118G: the self-cleavage amounted to 0.02.

As to A27G A47C A64G U70C, the self-cleavage was found to be 0.63.

As for C25U A114C U131C, the self-cleavage came to 0.02.

Take A27G A51G A89G A92C: the self-cleavage was 1.37.

For A27U U102A G138A, the self-cleavage worked out at 0.63.

Consider A24G C85U U108C, for which the self-cleavage was found to be 0.05.

As to A24G A94G U103C A117G, the self-cleavage was 0.32.

For U26C A33G A94U, the self-cleavage is 1.72.

In the case of A24U U39C U49C A55G A64G, the self-cleavage worked out at 1.54.

As for A24G G44U A82G, the self-cleavage is 0.74.

Consider U26A A30G U102C, for which the self-cleavage came out at 1.04.

In the case of A24G A125U U139A, the self-cleavage was 2.73.

Take A27G U38C A54G C71A: the self-cleavage amounted to 0.25.

For the variant A27U A52G A94G A95G U108C, the self-cleavage came out at 0.01.

For A24G U43C A86G, the self-cleavage is 1.16.

Consider A24G A95G U103C U130C, for which the self-cleavage worked out at 0.84.

U26C A95G U108C: the self-cleavage is 0.01.

In the case of A27G A98U U120C, the self-cleavage was found to be 1.29.

On to A24G A86C A94C G115A, for which the self-cleavage is 0.07.

On to G28A A36G U38C A95G U97C, for which the self-cleavage came to 0.86.

With U26C A51U U122C, the self-cleavage amounted to 1.11.

Turning to U26C C46U A94G, the self-cleavage was determined as 1.49.

Consider A24U A68G A96G, for which the self-cleavage is 1.09.

As for A24G G48U A86G, the self-cleavage worked out at 0.61.

For the variant A27G U49C U130C A134G, the self-cleavage stood at 1.31.

For the variant U26A U39C U102C U108C, the self-cleavage was 0.

For the variant U26C A59G U130C, the self-cleavage amounted to 0.79.

Consider A24U U70A A117U, for which the self-cleavage worked out at 0.84.

Consider U26C A30G A60G U108C U132C, for which the self-cleavage was found to be 0.03.

As to U26C A51G A82G, the self-cleavage turned out to be 0.86.

For the variant U26C A59U G99A A117U U120C, the self-cleavage turned out to be 0.1.

Regarding A24G A114U U139C, the self-cleavage was 0.14.

As for A27U U43A A117G, the self-cleavage came out at 1.97.

Consider A27G A52G A54G A62G, for which the self-cleavage stood at 0.9.

For A27G G41A A66G A67G, the self-cleavage came out at 1.02.

With A24G A96G U100C A118U, the self-cleavage turned out to be 0.9.

As to A27U G50A U108C, the self-cleavage was determined as 0.02.

Regarding A24U A82G A116G, the self-cleavage was 0.45.

On to A27G U57C A62G, for which the self-cleavage came to 1.47.

As to U26G A86G A96G U100A A118G, the self-cleavage came out at 0.31.

Turning to U26C U100C U108C, the self-cleavage was found to be 0.

As for A27G U38C A59G, the self-cleavage worked out at 1.73.

Take A27G A54U A114G: the self-cleavage turned out to be 0.6.

Take U26C U39C U49A U122C: the self-cleavage came out at 0.61.

As for A27G A36U G75C A114G A118G, the self-cleavage amounted to 0.02.

A27U U38C A90G A126G: the self-cleavage stood at 1.8.

In the case of A24G U38C A60U, the self-cleavage is 1.57.

Turning to A27U U39C A60G U70C, the self-cleavage came to 0.72.

For the variant U26C A68G U132C, the self-cleavage is 1.37.

For the variant A27G A62G G74A, the self-cleavage is 0.18.

For U26C A47G A54G A64G A89U A96G U108C, the self-cleavage came out at 0.02.

In the case of A27G U37C U43A A116G, the self-cleavage worked out at 1.24.

On to U26A A27G A110G, for which the self-cleavage is 0.2.

With A27U A91G U103C U130C, the self-cleavage came out at 0.36.

For A24U A47G A78U A96G, the self-cleavage came to 0.27.

Turning to C25A U38C A56G U87A U127C, the self-cleavage was determined as 0.85.

A24U A51U A86G U127C: the self-cleavage was determined as 0.88.

With A27U A59G U100C U132C, the self-cleavage turned out to be 1.65.

C25U A30G U39C U102C: the self-cleavage is 0.77.

Regarding U26C U43C A51U U131C, the self-cleavage amounted to 0.94.

For U26C A96G A118G, the self-cleavage stood at 1.25.

Regarding A24G A78U A114G, the self-cleavage is 0.32.

As to A24G U39A A95G, the self-cleavage was found to be 2.19.

Take A27U A55G U100C A140G: the self-cleavage came out at 2.27.

For the variant U26A A56G G75A U124C A126G, the self-cleavage amounted to 0.03.

Turning to U26A A47G A64G A69G C81U U103C, the self-cleavage was determined as 0.22.

For A27G A55G C71U A114U U120C, the self-cleavage worked out at 0.02.

On to A24G U38C A59U, for which the self-cleavage came to 1.4.

As to U26A G73A U124C, the self-cleavage came out at 0.02.

With A24G U43C A59C A64G U122G, the self-cleavage is 0.94.

With A27G A30U C40U A90G, the self-cleavage came to 0.64.

Consider U26A A27G A59G A82G U132C, for which the self-cleavage worked out at 0.38.

Take U26A U108A U122A: the self-cleavage was determined as 0.

A27U A30G U39A A47G A68C: the self-cleavage was 1.08.

In the case of G29A A52G U133C, the self-cleavage amounted to 2.63.

As to G28A A78G U122C, the self-cleavage came out at 0.06.

As for U26A A30G A66U A89U A135U, the self-cleavage was 0.7.

On to G28A A33G A126U, for which the self-cleavage stood at 0.46.

Consider A27G A56G A90G C105U, for which the self-cleavage was determined as 0.04.

Turning to A27G A52G A54G U124A A129G, the self-cleavage was 0.48.

Consider A24G U26A A95G U108A, for which the self-cleavage was determined as 0.09.

A24G G74A A126G: the self-cleavage was 0.08.

With A27G G28U C76U, the self-cleavage stood at 0.11.

As to A24U C71U A96G, the self-cleavage was found to be 0.14.

A24G U38C U49A U108C: the self-cleavage is 0.03.

In the case of U26G A64G A114G, the self-cleavage came to 0.44.

With A24U A30U G58A A59G A82G, the self-cleavage was 0.73.

As to A24U A51G A63G A68G, the self-cleavage came out at 0.98.

Take A27G A33G A94G: the self-cleavage came to 1.22.

A24G A82C A96C: the self-cleavage was found to be 0.07.

With A24G U38C A67G A116G U122C, the self-cleavage was found to be 0.37.

As for A24U A63U A96G, the self-cleavage came to 1.74.

For the variant A24G C46U U108C, the self-cleavage was 0.03.

As for A24G C77U A89U, the self-cleavage is 2.41.

Consider A24U U122C U131C, for which the self-cleavage is 1.32.

With U26C A62G A64G U108C, the self-cleavage came to 0.04.

On to A27G A59G A82G, for which the self-cleavage is 0.55.

For the variant A27G A90U U108C, the self-cleavage amounted to 0.01.

For A24G U87C U122C, the self-cleavage was 1.49.

Regarding U26A U39C A54U A89U A116U, the self-cleavage came to 0.26.

For the variant U26A U37C A92G, the self-cleavage came to 1.63.

Take U26A A91G A114G: the self-cleavage was 0.28.

Regarding A27G U39C A69G A89G A110U, the self-cleavage came to 0.78.

Take U26C A90G U131C: the self-cleavage amounted to 0.74.

For the variant A27G A95G A116U, the self-cleavage worked out at 0.54.

In the case of U26C A86G A91U A116U U131A, the self-cleavage came to 0.08.
